Results: the supplement of paper PMC11417369
The list shows a part of the results.

test system: PfAP2-HC AP2 domain (GST-tagged); assay: gcPBM binding intensity (ln(normalized median fluorescence intensity)); higher = stronger DNA binding
In short: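 Alexa488 anti-GST antibody, scanned at 488 nm, detected GST-tagged P. falciparum DNA-binding domains that had been expressed in E. coli and incubated for 1 h on an Agilent 4 × 180k array. The array carried primer-extended double-stranded 36-bp intergenic genomic probes and negative controls. Binding intensity is the highest Masliner-normalised natural-log median intensity across replicate spots of either orientation of each probe.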

Sequence | gcPBM binding intensity (ln)
TATCTCTCTTTCTGCTGTACATAAAAATTATATAAT [XGTACX_site5961] | 9.61
AACATATTTTTAAATACACACACATAAAAAAAAAAA [CACACA_site8279] | 10
TCTACAAGGCTTGATCGTACAATTTGAATGTATTTG [XGTACX_site7698] | 9.52
CTCAACATATACGTAACACACATATATATATATATA [CACACA_site3838] | 9.75
AAAATAACGAGTCAAACACACATATATATATATATA [CACACA_site2039] | 9.75
AGCATAAACAATTTTTGAAAAAATATACACTCATAG [CACACA_negctrl_site890] | 9.56
TATGCAAGGAACCACACACACACACCCAAATGTATA [CACACA_site750] | 10.5
AGATTATATATATGTATATATGTATATATTTATATA [CACACA_negctrl_site1797] | 9.53
ATTATAATAGTTAAATGTACACACTAACTACATGGA [XGTACX_site6918] | 9.76
AATTAAAAATTCAAGTGTACTTTTATATTATTATAC [XGTACX_site4106] | 9.6
ATTCGGATATATATCACACATAACTTTAATAATATA [CACACA_site5720] | 9.58
TAAATAGCCAAACGCACACCCACAAAAAAAAAAAAA [CACACA_site1554] | 10.3
TATATATAATATACATGTACAAATGTATTTAAAAAT [XGTACX_site6090] | 9.72
AGAAAATACACGCATACACACACACCCACCCACATA [CACACA_site8115] | 11.3
CAAAAAAAGAAAGCTACACACATTTATGTGCTATAT [CACACA_site2777] | 9.88
AAAAAAAATAAAAATAGTACTCAAAAAATTATGAAT [XGTACX_site3073] | 9.68
ATATTAATTTCTTATGCATGTTCTACCAAATTGTAT [TGCATGCA_site38] | 9.75
GATATGATATGATATGCATGTAACAAATTTTTTTAA [TGCATGCA_site268] | 9.49
AAAAAAAAATATATATATATATATATATTTATGTAT [GTGCAC_negctrl_site483] | 9.5

Sequence | gcPBM binding intensity (ln)
TTCTTCAATAATAAGTGTACATATGCATACATTATA [XGTACX_site1502] | 9.78
ATAATAAAATAAGAAGCACACAAATATTATATATAA [CACACA_site9319] | 9.94
AATTAAAAAATTTATGCACACTTTAAAAAAAAAAAA [CACACA_site5962] | 9.54
ATCAAATTTGGACATGCATGTGTGTGTAAAACCATG [TGCATGCA_site309] | 10.8
ATATTAGTCGAATGATGTACACACATACAAAACATT [XGTACX_site8613] | 10.2
AATTATTCTCTTTTCATTTGAACAATATGCTTAAAA [CACACA_negctrl_site995] | 9.59
AATATTTTTTAAATGTGTACATAGGTATAGCACACA [XGTACX_site8690] | 9.7
AGTCATATAAATAGTAGTACTGTGTGTGAAGAAAAA [XGTACX_site5056] | 10.2
ACACATTCGAAAAATTGTACATATATAACAGAATAT [XGTACX_site7106] | 9.81
ACAAATATGAGAAATTGTACATATAATAAAATAGTA [XGTACX_site2573] | 9.72
GACTGCACTTTAAGCACACAAATATATTTTTTTTAT [CACACA_site1249] | 9.81
TTCTATTATGTGACTCAATTCTTCATGGGTGTATAA [TGCATGCA_negctrl_site140] | 9.61
AATGTATTTATTTTTTGTACATATCGTGTGTGTATT [XGTACX_site1009] | 10.5
TTTTTTTTTAAATATACACACACATTTATACATATA [CACACA_site9122] | 9.94
TTTGGAATATAATATTGTACATATTATATATATATA [XGTACX_site3187] | 9.55
CCTCATCCACTATGCACACAAAAAAGAAATACACTA [CACACA_site3422] | 10.1
TTTTTTTTTTTTTTAACACACATATATATATTTTTC [CACACA_site1922] | 9.62
TTCTCAAATATAATAAAATTATAAAGTGACCTAACT [GTGCAC_negctrl_site493] | 9.5
TAATGGATTATACGTGCACACATATATACAAATAAA [CACACA_site8116] | 9.81

Sequence | gcPBM binding intensity (ln)
TTATTTATTTTTATATGTACACAAAAAAAAAAAAAA [XGTACX_site1459] | 9.11
AATATATATAACGTTGGTACACAAAAATTATTAAAT [XGTACX_site8572] | 9.89
AAAAAAAACGGACACACACACATAAATATATATAAA [CACACA_site4260] | 11.3
CACACCCACCAACACACACACAAAAAAAAAAAGAAA [CACACA_site500] | 10.4
ATATTTTATTTTAATACACACAAGTTATATAATCAC [CACACA_site780] | 9.75
AAAAGGTATAGAAACACACACACGTGAATATAGTTT [CACACA_site1905] | 10.5
TACAAATTTATATAAAGTACAAAAAATAATAAAAAT [XGTACX_site7355] | 9.77
AAAAAAAAAAAAAGTGCACACATAAAAATATGATCT [CACACA_site8090] | 9.9
ACATATGTTTTATGTAGTACTTATTTATTATTATAT [XGTACX_site7528] | 9.79
ATGAATAAATAGGTCACACACAAATATATATAAATA [CACACA_site2416] | 10.6
TTGTTCGATATATGCACACAGTTTTGTTATTTTTCC [CACACA_site4972] | 9.98
CACTACACTGTTAATAGTACATATATTTAAAAAAAA [XGTACX_site7371] | 9.61
AGAAAAAAAAAAAGTACACACATATAATATATATAT [CACACA_site2973] | 10
AGTTAATGAATAGGCACACATATATCTGTATAAATA [CACACA_site4448] | 9.83
TCAAATAATAAGTATGCATGCTATATTTATATATAC [TGCATGCA_site920] | 9.62
TACATTTTACTTGTTACACACATATAAAATTAACCA [CACACA_site2922] | 9.74
AAACGTACATAATACACACACATGTATACCTATAAA [CACACA_site7051] | 10.1
ATAAAAAATAAAATAAATAAAAAATATTTACCCTTA [TGCATGCA_negctrl_site396] | 9.48
